Test results reported in PubChem BioAssay AID504832 (National Center for Advancing Translational Sciences (NCATS), 2011).
The campaign covered roughly 310,000 compounds. About 18,000 (5.8%) were called active. The inconclusive results got no clear call from the source; some entries with a clear call stand among them for comparison. The call rests on the fitted dose curve; in most records, active means well fitted inhibition curve with a large enough effect; inconclusive means small, poorly fitted or top-dose-only effect, or another doubt; inactive means no such curve, though single readings can be large or run the other way. Potencies of inconclusive entries are left out as doubtful fits.

assay: Primary qHTS for delayed death inhibitors of the malarial parasite plastid, 48 hour incubation; conditions: P. falciparum luciferase growth in erythrocytes; series mostly up to 28.7 µM; activity change, negative = inhibition: at the top concentration
Outline: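 Cell-based growth assay: transgenic P. falciparum expressing firefly luciferase, cultured in red cells within RPMI 1640 containing 0.5% w/v Albumax, 24 mM bicarbonate and gentamycin. A drop in luciferase activity indicates inhibition.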
On the % scale 0 is the no-effect control and ±100 the full control effect; potency means the concentration at half of the fitted maximal effect; tags describe the fitted curve by direction and shape.

Structure (SMILES)	Potency	activity change, negative = inhibition
COc1ccc2c(CC(=O)Nc3ccccc3N3CCOCC3)coc2c1	inconclusive [inhibitor, partial curve]	–
CCC1(C)Cc2c(sc3nc(SC)[nH]c(=O)c23)CO1 (centres undefined)	inconclusive [inhibitor, single point]	–
COc1ccc(N(CC(=O)Nc2ccc(C(C)C)cc2)S(=O)(=O)c2c(C)noc2C)cc1	inconclusive [inhibitor, single point]	–
Cc1ccc(C)c(SCC(=O)NC(=O)NC2CCCC2)c1	inconclusive [inhibitor, single point]	–
CCOC(=O)CSc1nc2ccccc2c(=O)n1CC1CCCC1	inconclusive [inhibitor, partial curve, poor fit]	–
Cc1ccccc1NS(=O)(=O)c1ccc2[nH]cc(C(=O)NC3CCCCC3)c(=O)c2c1	active: 11.7 µM	–
COc1ccc(C(=O)CCN2CCCC(C)C2)cc1 (centres undefined)	–	inactive: -18.9%
CC1CCCCC1Nc1nc2ccc(Cl)cc2n2cnnc12 (centres undefined)	inconclusive [inhibitor, partial curve]	–
CC(C)Sc1cc(N2CCCC2)nc(-c2ccccc2Cl)n1	inconclusive [inhibitor, single point]	–
CC(C)(C)OC(=O)N1CCC(c2c(C(=O)NCC3CCN(C4CCCC4)C3)cnn2-c2ccccc2Cl)CC1 (centres undefined)	inconclusive [inhibitor, full curve]	–
Cc1ccn2c(Nc3ccccc3)c(-c3ccccn3)nc2c1	active: 2.08 µM	–
COc1ccc(NC(=O)COC(C)=O)cc1OC	inconclusive [inhibitor, full curve, poor fit]	–
O=c1c(Cl)c(N2CCN(c3ccc(F)cc3)CC2)cnn1C12CC3CC(CC(C3)C1)C2	active: 4.65 µM	–
c1ccc(CNc2ncnc3c2cnn3Cc2ccccc2)cc1	inconclusive [inhibitor, partial curve, poor fit]	–
O=C(COc1ccc2ccccc2c1)N1CCN(C(=O)c2cccs2)CC1	inconclusive [inhibitor, single point]	–
N#CC1=C(SCC(=O)NC23CC4CC(CC(C4)C2)C3)NC(=O)C(C#N)C12CCCCC2 (centres undefined)	inconclusive [inhibitor, single point]	–
CCC(=O)N1CCN(c2ccc(Cl)cc2NC(=O)c2ccc3c(c2)OCCO3)CC1	inconclusive [inhibitor, single point]	–
COc1ccc(C)cc1NC(=O)CCNC(=O)Cn1ccc2ccccc2c1=O	–	inactive: 19.4%
CC(=O)Nc1ccc(SC[C@H](Cc2ccccc2)N2CC[C@@H](C)CCC2=O)cc1	active: 6.57 µM	–
